This note sets out measurements from ChEMBL document CHEMBL4888484, “Replenishing the malaria drug discovery pipeline: Screening and hit evaluation of the MMV Hit Generation Library 1 (HGL1) against asexual blood stage Plasmodium falciparum ,using a nano luciferase reporter read-out” (2022).

In all, about 150,000 compounds went through this assay and about 540 (0.36%) showed an effect of 50% or more. This is one part of the list.

In the assay the test system is Plasmodium falciparum. In words: Primary screen in NF54 nanoGlo assay, in single point, at 2uM, 72h; a lower Z score goes with more inhibition. In kind it is functional, Erythrocyte. Conditions: timepoint 72 hour.
`Cc1nc(-c2cc(S(=O)(=O)Nc3cccc(Cl)c3)cn2C)sc1C(=O)N1CCOCC1`: the % Inhibition (usually the change of the read-out against control, counted positive when it falls) is 0% and the Z score is -0.02.

Regarding `CC(=O)N[C@H]1CN(Cc2nc(C)cc(C)n2)C[C@@H]1c1ccc(C)cc1`, the “% Inhibition” value is -7% and the Z score is on record as 0.82.

As for `C[C@H]1CN(c2cccc(-c3ccccc3)c2)C(=O)CN1C(=O)c1cccc(O)c1`, the “% Inhibition” value was -17% and the Z score was found to be 1.95.

Consider `O=C(Nc1ccc2c(c1)OCCO2)NC1CC2CC2C1` (stereo not drawn), for which the “% Inhibition” value was -13% and the Z score is reported as 1.78.

On to `COCCC1(CNc2nccnc2C#N)CCCC1`, for which the “% Inhibition” value was -9% and the Z score turned out to be 1.06.

With `CCOCCOc1ccccc1C(=O)N1CC[C@@H]2OCc3cccc(c3)Oc3cc(ccc3OC)CCC(=O)N[C@@H]2C1`, the “% Inhibition” value was found to be 3% and the Z score is listed as -0.44.

In the case of `CC(=O)N(C)c1cccc(NC(=O)NCCC(F)(F)F)c1`, the “% Inhibition” value is -12% and the Z score is on record as 1.01.

On to `Oc1c(Cl)cc(Cl)cc1CNc1nc2ccc(Br)cn2n1`, for which the “% Inhibition” value was -11% and the Z score is recorded as 1.13.

For `COc1cccc(OCCNC(=O)C(C)(C)C)c1`, the “% Inhibition” value is on record as -12% and the Z score is listed as 1.2.

In the case of `CCc1ccc(N2C[C@@H](c3nc(CC)no3)CC2=O)cc1`, the “% Inhibition” value came out at 7% and the Z score is -1.39.

Take `Cc1ccc(-c2ccc(CCC(=O)N3CCC(n4cnnc4)CC3)o2)cc1`: the “% Inhibition” value is reported as -6% and the Z score is 0.86.

Regarding `O=C(Cc1cccc(F)c1)N1CCC2(CC1)C[C@H](CO)N(C(=O)c1ccccc1)C2`, the “% Inhibition” value is given as -3% and the Z score was 0.33.

As for `O=c1cnc2cc(F)c(F)cc2n1CCOC[C@H]1CCCO1`, the “% Inhibition” value was -9% and the Z score stood at 1.74.

With `C[C@@H](CN1CCCCC1)NC(=O)c1cnn2c1CCCC2`, the “% Inhibition” value was -4% and the Z score was found to be 0.52.

With `O=C(CC1N=C(O)N(Cc2cccc(F)c2)C1=O)N1CCOC(c2ccccc2)C1` (stereo not drawn), the “% Inhibition” value is given as -6% and the Z score was 0.77.

For the molecule `COc1ccccc1CN(C(=O)c1ccc(C)cc1)c1ccc(CC(=O)N(C)C2CCCCC2)cc1`, the “% Inhibition” value is -13% and the Z score came out at 2.04.

Consider `O=C(C[C@H]1COCCN1)c1ccccc1`, for which the “% Inhibition” value was -13% and the Z score is on record as 2.09.

Take `c1cc2nnc(C3CC3)n2nc1N1CCC(OC2CCOCC2)CC1`: the “% Inhibition” value is recorded as -4% and the Z score is on record as 0.61.

As to `C[C@@H](Cn1cncn1)c1nc(CC(N)=O)nn1-c1cccc2c1CCC2`, the “% Inhibition” value is -11% and the Z score is 1.69.

Consider `Cc1c(Cl)cccc1NC(=O)c1ccnc(-c2ccsc2)c1`, for which the “% Inhibition” value came to 10% and the Z score is on record as -1.3.

Regarding `Cn1cc(S(=O)(=O)NC2CCN(c3cnsn3)CC2)cn1`, the “% Inhibition” value turned out to be 7% and the Z score is on record as -0.96.

For `Cc1n[nH]c(C)c1CCC(=O)NCc1cc2n(n1)CCN(C1CCCCC1)C2`, the “% Inhibition” value was -16% and the Z score came to 2.27.

For `c1n[nH]c2c1CCC(NC1CCC13CCCC3)C2` (stereo not drawn), the “% Inhibition” value was -4% and the Z score stood at 0.59.

As to `Cc1ccnc(-n2nc(C)cc2NC(=O)Cc2noc3ccccc23)c1`, the “% Inhibition” value is -2% and the Z score is reported as 0.28.

Take `CN(C)CC(C)(C)CNC(=O)C(=O)Nc1ccc(N(C)C)cc1`: the “% Inhibition” value is recorded as -17% and the Z score came to 2.65.

For `Cc1ncc(CN2CCc3cncnc3C2)s1`, the “% Inhibition” value amounted to 1% and the Z score was -0.19.

As to `CC(=O)NC[C@H]1CCCN(C(=O)c2coc(COc3cccc(F)c3)n2)C1`, the “% Inhibition” value is -8% and the Z score came to 1.56.

Regarding `Cc1ccccc1-c1cn[nH]c1C1CCN(c2cnccn2)CC1`, the “% Inhibition” value is -11% and the Z score worked out at 1.43.

Take `CN(CCN(C)C(=O)c1cncc(F)c1)C(=O)c1cncc(F)c1`: the “% Inhibition” value amounted to 22% and the Z score is recorded as -2.4.

Turning to `CC(C)(C)OC(=O)N(Cc1nccn1C(F)F)C1CC1`, the “% Inhibition” value is -2% and the Z score was found to be 0.15.

On to `Cc1ccc(NC(=O)C[C@](C)(O)C(F)(F)F)c(C)c1`, for which the “% Inhibition” value is recorded as -6% and the Z score stood at 1.13.

For `CC[C@H](NC(=O)CCc1cnn(C)c1)c1ccc2c(c1)CC(C)(C)O2`, the “% Inhibition” value was -4% and the Z score amounted to 0.74.

`CN(CCn1nc(C2CC2)nc1C1CC1)Cc1ccccc1`: the “% Inhibition” value is on record as -14% and the Z score came to 1.38.

For `NC(=O)C1CCN(C2CN(C(=O)c3ccc4nsnc4c3)C2)CC1`, the “% Inhibition” value was -7% and the Z score was 1.27.

As to `CCN(C(=O)Cn1c(C)cc2nc3n(c(=O)c21)CCCCC3)c1cccc(C)c1`, the “% Inhibition” value is on record as 0% and the Z score is -0.03.

On to `COCCn1c([C@H](C)NC(=O)CCn2ccc3ccc(F)cc32)nc2ccccc21`, for which the “% Inhibition” value was -14% and the Z score was determined as 1.68.

As for `O=C(NCCn1nc2c(cc1=O)CCC2)c1cncc(O)c1`, the “% Inhibition” value is given as 14% and the Z score is on record as -1.84.

`Cc1nn(C)c(Cl)c1CN1CCC[C@H](N(C)Cc2ccccc2)C1`: the “% Inhibition” value was -4% and the Z score is on record as 0.41.

For the molecule `CN1C(=O)CC[C@]2(CNC(=O)c3ccc(F)cc3)CCCC=C12`, the “% Inhibition” value is reported as -12% and the Z score amounted to 2.2.

For the molecule `CC[C@H](CO)NC(=O)NC(C)c1ccncc1F` (stereo partly drawn), the “% Inhibition” value was determined as 3% and the Z score is reported as -0.51.

For `CC(=O)N1CCC(CNC(=O)c2cc(C)cc(F)c2)CC1`, the “% Inhibition” value came out at 5% and the Z score is -0.77.

As to `COc1nc2c(cc1CNC(=O)c1ccnc(N)c1)C(=O)N(C1CCCC1)C2`, the “% Inhibition” value is -16% and the Z score was 2.25.

Consider `OC[C@@]1(CCOc2ccccc2)CCCN(Cc2cc3c(cc2Cl)OCO3)C1`, for which the “% Inhibition” value was -1% and the Z score was determined as 0.29.

For the molecule `CC(=O)NC1CCC(Nc2ccc(N3CC(C)OC(C)C3)cc2)CC1` (stereo not drawn), the “% Inhibition” value is on record as -11% and the Z score is listed as 1.08.

In the case of `CC(C)(CC(=O)N1CC[C@](C)(C(N)=O)C1)C(F)(F)F`, the “% Inhibition” value turned out to be 2% and the Z score is listed as -0.38.

For the molecule `O=C(Nc1nonc1NC(=O)c1ccc2c(c1)OCO2)c1ccc2c(c1)OCO2`, the “% Inhibition” value is given as -1% and the Z score was found to be 0.1.

Turning to `CCc1cnc(CNC(=O)NCC(C)N2CCOCC2C)s1` (stereo not drawn), the “% Inhibition” value is -6% and the Z score turned out to be 0.61.

For `CCC(CC)(C(=O)O)C(=O)Nc1ccc2c(c1)CNCC2`, the “% Inhibition” value is recorded as -10% and the Z score was 1.6.

As for `Cc1nc(C)c(Cc2cccc(F)c2)c(N2CCN(C[C@@H](O)Cc3ccccc3)CC2)n1`, the “% Inhibition” value is -4% and the Z score stood at 0.53.

Turning to `C#CCNC(=O)c1ccc(N[C@H]2CCCN(c3ncccn3)C2)nc1`, the “% Inhibition” value was 1% and the Z score is recorded as -0.12.

As to `Cc1cccc(NC(=O)Nc2ccccc2C2CC2)c1`, the “% Inhibition” value was -8% and the Z score stood at 1.07.

On to `COC(=O)c1cn(-c2cccc(C(=O)N3CCNC(=O)C3)c2)cc2c(O)nnc1-2`, for which the “% Inhibition” value is 0% and the Z score came out at 0.

Consider `COCCc1nc(CO[C@H]2CCCN(C(C)=O)C2)no1`, for which the “% Inhibition” value is reported as -17% and the Z score came to 2.51.

Regarding `COc1ncc(NC(=O)Cc2ccc(F)cc2)c(N2CCCC2)n1`, the “% Inhibition” value amounted to 16% and the Z score is -2.41.
